Assay results published in paper PMC6919601, “Identification of Plasmodium dipeptidyl aminopeptidase allosteric inhibitors by high throughput screening” (PLoS ONE, 2019).
Several values for one entry are separate records, joined by “and”; a condition that tells them apart may be missing. Equal entries are not always repeated. In all, about 110,000 compounds went through this assay and about 230 (0.21%) showed an effect of 50% or more. The list shows a part of the results.

molecular target: DPAP1 (Plasmodium falciparum, UniProt Q8IIJ9); assay: primary screen, percent inhibition; read by cleavage of a fluorogenic dipeptide substrate; higher = more effect of the substance; set-up: species or system P. falciparum D10 trophozoite lysates; single well
Sequence (Q8IIJ9 whole entry, looked up): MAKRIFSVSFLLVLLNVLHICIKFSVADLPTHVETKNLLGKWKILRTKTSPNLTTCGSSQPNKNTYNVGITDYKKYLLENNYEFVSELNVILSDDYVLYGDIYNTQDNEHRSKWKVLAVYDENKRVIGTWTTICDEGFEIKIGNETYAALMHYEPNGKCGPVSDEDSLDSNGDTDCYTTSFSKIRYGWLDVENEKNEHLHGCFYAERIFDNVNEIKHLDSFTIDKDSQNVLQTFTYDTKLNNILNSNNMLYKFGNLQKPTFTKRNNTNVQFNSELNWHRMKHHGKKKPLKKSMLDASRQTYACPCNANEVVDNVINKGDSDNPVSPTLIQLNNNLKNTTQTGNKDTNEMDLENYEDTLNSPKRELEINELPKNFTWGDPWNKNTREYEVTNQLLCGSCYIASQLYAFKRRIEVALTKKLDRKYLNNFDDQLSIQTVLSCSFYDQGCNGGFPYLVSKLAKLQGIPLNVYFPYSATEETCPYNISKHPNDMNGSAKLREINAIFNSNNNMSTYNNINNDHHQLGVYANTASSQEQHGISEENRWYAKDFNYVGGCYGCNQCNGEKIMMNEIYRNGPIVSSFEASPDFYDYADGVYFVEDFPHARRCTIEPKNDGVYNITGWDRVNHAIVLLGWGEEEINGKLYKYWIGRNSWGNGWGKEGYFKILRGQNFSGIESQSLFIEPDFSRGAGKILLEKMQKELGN
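Also: 30 min substrate incubation versus DMSO and 10 µM JCP410 controls.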

First: CC(=O)Nc1nonc1NC(=O)c1sc2ccccc2c1Cl
Second: O=C(O)CCC(=O)Nc1sc2c(c1C(=O)Nc1ccccc1)CCCC2
The “% Inhibition @ 10 uM” value of the first is higher: -4.11% for the first, -4.76% for the second.

Going from `COCCCn1c(-c2ccc(F)cc2)cn2c3c(=O)n(C)c(=O)n(C)c3nc12` to `CCN1CCN(Cc2nc3c(c(=O)n(C)c(=O)n3C)n2CCOC)CC1`, the “% Inhibition @ 10 uM” value falls from 3.26% to -1.43%.

Compared with `O=C(NCc1ccccc1)c1ccc2c(c1)sc1nc(-c3ccccc3)cn12`, `CCOc1nc(NC(=O)NC(=O)c2ccccc2)nc(-c2ccccc2)n1` is lower in “% Inhibition @ 10 uM” value: -0.361% for the first, -2.5% for the second.

Compared with `Cc1cc(C(=O)N2CCN(C(=O)c3ccco3)CC2)c2c(C)nn(-c3ccccc3)c2n1`, `Cc1cc(C(=O)NCCc2ccccc2)c2c(C)nn(-c3ccccc3Cl)c2n1` is lower in “% Inhibition @ 10 uM” value: 5.13% for the first, 3.75% for the second.

First: COc1ccc(Cn2ccc3nc(C)c(C(=O)NCc4ccco4)cc3c2=O)cc1
Second: CCCNC(=O)c1cc(-c2cc(OC)ccc2OC)nc2ccccc12
The “% Inhibition @ 10 uM” value of the first is lower: -3.04% for the first, 7.37% for the second.

Going from `O=C(CSc1nccc(O)n1)Nc1nonc1-n1cccc1` to `CCCc1cc(O)nc(SCC(=O)Nc2ccc(OC)cc2)n1`, the “% Inhibition @ 10 uM” value rises from -4.49% to -4.12%.

First: COc1cccc(CNC(=O)c2cnn3c(C(F)(F)F)cc(-c4cccs4)nc23)c1
Second: COc1ccccc1Cc1nnc(C(=O)NCc2ccc3c(c2)OCO3)o1
The “% Inhibition @ 10 uM” value of the first is lower: -2.36% for the first, 6.13% for the second.

Compared with `CCOc1ccc(C2=CC(c3ccccc3OC(F)F)n3ncnc3N2)cc1Cl` (centres unmarked), `COc1ccc(CCNc2ncnc3onc(-c4ccc(Cl)cc4)c23)cc1OC` is lower in “% Inhibition @ 10 uM” value: 3.32% for the first, -2.19% for the second.

Compared with `Cc1ccc2sc(-c3ccc(NC(=O)c4ccc([N+](=O)[O-])cc4)cc3)nc2c1`, `COc1ccc(C(=O)COc2ccc(NC(=O)c3cccs3)cc2)cc1` is higher in “% Inhibition @ 10 uM” value: -0.546% for the first, 2.64% for the second.

First: Cc1nnc(SCC(=O)NCCc2ccccc2)c2cc3sccc3n12
Second: CCN(CC)CCNC(=O)CCc1nnc2n(CCc3ccccc3)c(=O)c3ccccc3n12
The “% Inhibition @ 10 uM” value of the first is lower: -9.51% for the first, -4.21% for the second.

Compared with `COc1cc2ncc(C(=O)c3ccc(C)c(C)c3)c(N3CCOCC3)c2cc1OC`, `COc1ccc(C2C(C(=O)c3cc4ccccc4o3)=C(O)C(=O)N2CCN2CCOCC2)cc1OC` (centres unmarked) is higher in “% Inhibition @ 10 uM” value: -5.03% for the first, -3.13% for the second.

Going from `CCCc1[nH]nc2c1C(c1cccc(Br)c1)C(C#N)=C(N)O2` (centres unmarked) to `N#CC1=C(N)OC2=C(C(=O)CCC2)C1c1cccc2ccccc12` (centres unmarked), the “% Inhibition @ 10 uM” value falls from 1.82% to -4.94%.

Compared with `CCCCOc1ccc(/C=c2\sc3ncnn3c2=O)cc1`, `Cc1ccc(/C=c2\sc3nc(-c4ccccc4C)nn3c2=O)o1` is lower in “% Inhibition @ 10 uM” value: 0.273% for the first, -1.18% for the second.

First: Cc1ccc(Cl)cc1N1CCN(C(=O)c2c(F)cccc2F)CC1
Second: CCCC(=O)c1ccc(N2CCN(C(=O)CC)CC2)c(F)c1
The “% Inhibition @ 10 uM” value of the first is higher: 0.528% for the first, -2.83% for the second.

First: COc1ccccc1Nc1nc(N)nc(CSc2ncccn2)n1
Second: Cc1ccc(Nc2nc(N)nc(CSc3nccn3C)n2)c(C)c1
The “% Inhibition @ 10 uM” value of the first is lower: -0.519% for the first, 1.35% for the second.

First: Cc1cc2nc(NC(=O)c3ccco3)sc2cc1C
Second: COc1ccc(OC)c(NC(=O)c2ccc(Cn3nc(C)c(Cl)c3C)o2)c1
The “% Inhibition @ 10 uM” value of the first is lower: -4.02% for the first, -1.37% for the second.

Compared with `O=C(NCc1ccccn1)c1ccc(Br)cc1`, `Cc1ccc(C(=O)Nc2ccccc2N2CCCC2)cc1` is higher in “% Inhibition @ 10 uM” value: 0.937% for the first, 2.4% for the second.

Compared with `CC(C)OCCCn1c(=O)c2ccccc2n2c(-c3ccc(C(F)(F)F)cc3)nnc12`, `COc1ccc(-c2nnc(S)n2-c2ccccc2)cc1` is higher in “% Inhibition @ 10 uM” value: -1.72% for the first, 4.35% for the second.

Compared with `Cc1ccc(C(C)C)c(OCC(=O)Nc2cccc(Cl)c2C)c1`, `Cc1cc(C(=O)O)c2c(C)nn(-c3cccc(Cl)c3C)c2n1` is higher in “% Inhibition @ 10 uM” value: 1.14% for the first, 9.5% for the second.

First: COc1ccc(CNC(=O)CN(C)S(=O)(=O)c2ccc(-c3ccc(O)nn3)s2)cc1
Second: COc1ccc(C(=O)CCc2nc3ccccc3s2)cc1
The “% Inhibition @ 10 uM” value of the first is lower: -2.16% for the first, 1.62% for the second.

Going from `Cc1ccc(-c2nn(CCC(=O)NCC3CCCO3)c(=O)c3ccccc23)cc1` (centres unmarked) to `CCN(CC)C(=O)c1ccc(N/C=C2/C(=O)NC(=O)N(c3ccccc3)C2=O)cc1`, the “% Inhibition @ 10 uM” value rises from -2.98% to -2.89%.

Compared with `CC(C)(C)NCC(O)COc1ccc(C23CC4CC(CC(C4)C2)C3)cc1` (centres unmarked), `CCC(C)c1ccc(OCCCN2CCN(C)CC2)cc1` (centres unmarked) is higher in “% Inhibition @ 10 uM” value: -2.55% for the first, 3.25% for the second.

Compared with `O/C(=C\c1nc2ccccc2[nH]1)c1cc(Cl)c(O)cc1O`, `Oc1nc2c(-c3c(F)cccc3Cl)nnn2c2ccccc12` is lower in “% Inhibition @ 10 uM” value: -2.91% for the first, -3.13% for the second.

First: CC1CC(C)CN(CCCNC(=O)c2ccc(CS(=O)(=O)Cc3ccccc3F)o2)C1 (centres unmarked)
Second: O=C(NCCCN1CCOCC1)c1cnn(-c2ccccc2)c1-n1cccc1
The “% Inhibition @ 10 uM” value of the first is higher: -0.971% for the first, -1.58% for the second.

Compared with `COCCNC(=O)c1cc(-c2cccnc2)nc2ccc(S(=O)(=O)N3CCCCCC3)cc12`, `Cc1ccc(Nc2nc(N)nc(CN3CCCCCC3)n2)c(C)c1` is lower in “% Inhibition @ 10 uM” value: 1.62% for the first, -7.15% for the second.

Compared with `N#CCNC(=O)[C@@H](Cc1c(F)c(F)c(F)c(F)c1F)NC(=O)OCc1ccccc1`, `COc1cc(/C=C2/NC(=O)NC2=O)c(Br)cc1OCc1ccccc1` is higher in “% Inhibition @ 10 uM” value: -3.14% for the first, 3.8% for the second.

First: C=CCN1C(=O)N/C(=C/c2ccc(-c3cccc(Cl)c3)o2)C1=O
Second: O=C1NC(=O)N(c2cccc(Cl)c2)C(=O)/C1=C\Nc1ccccn1
The “% Inhibition @ 10 uM” value of the first is higher: 6.71% for the first, -0.366% for the second.

Going from `COc1ccc(/C=C2\SC(N)=NC2=O)cc1O` to `CCC(C)N1C(=O)S/C(=C/c2cc(OC)c3c(c2)OCO3)C1=O` (centres unmarked), the “% Inhibition @ 10 uM” value rises from -3.33% to 2.93%.

Compared with `O=S(=O)(c1cc(Cl)ccc1Cl)N1CCN(C/C=C/c2ccccc2)CC1`, `O=[N+]([O-])c1ccc(N2CCN(Cc3cccc(Cl)c3)CC2)cc1` is lower in “% Inhibition @ 10 uM” value: 6.06% for the first, -1.93% for the second.

First: COc1ccc(CC2(C)OC(c3ccncc3)=NN2C(C)=O)cc1 (centres unmarked)
Second: CCC(C)NC(=O)C1CC(c2ccc(OC)cc2)=NO1 (centres unmarked)
The “% Inhibition @ 10 uM” value of the first is lower: -6.92% for the first, 1.62% for the second.

First: Cn1c(=O)c2c(nc(S)n2CC2CC2)n(C)c1=O
Second: Cc1cc(=O)n2nc(N3CCCC3C(=O)NCc3ccc(OC(C)C)cc3)sc2n1 (centres unmarked)
The “% Inhibition @ 10 uM” value of the first is lower: 1.81% for the first, 4.55% for the second.

First: CN1C(=O)/C(=C\c2cccc(F)c2)N=C1SCC(=O)Nc1ccc(Cl)cc1
Second: CSc1nc(-c2ccc(Cl)cc2)nn1S(=O)(=O)c1ccc(NC(C)=O)cc1
The “% Inhibition @ 10 uM” value of the first is lower: 4.28% for the first, 9.57% for the second.

First: Cc1nc2cc(NC(=O)NC(C)(C)C)ccc2n1C
Second: CC(C)(C#N)NC(=O)Nc1ccccc1
The “% Inhibition @ 10 uM” value of the first is lower: -2.37% for the first, 6.47% for the second.

Going from `CCOc1ccc(S(=O)(=O)n2cc(F)c(=O)[nH]c2=O)cc1` to `Cc1ccc(S(=O)(=O)N2CCCC2CO)cc1` (centres unmarked), the “% Inhibition @ 10 uM” value rises from -7.7% to -1.6%.

Compared with `Nc1cnn(Cc2cccc3ccccc23)c1`, `CCn1ncc(Br)c1C(=O)NCc1ccccc1OC` is higher in “% Inhibition @ 10 uM” value: -0.553% for the first, 17.5% for the second.

Compared with `CCN(CC)CCCCCOc1ccc(C)cc1`, `CCN(CC)C(=O)C1=CC(c2ccc(C)cc2)=NS(=O)(=O)N1C` is higher in “% Inhibition @ 10 uM” value: -1.25% for the first, 2.11% for the second.

Going from `COC(=O)C1=CN(C2CC2)C=C(C(=O)OC)C1c1ccc(OC)c(OC)c1OC` to `COC(=O)C1=CN(C(C)C)C=C(C(=O)OC)C1c1cccc(O)c1`, the “% Inhibition @ 10 uM” value falls from -3.06% to -8.88%.

Going from `O=C(CN1C(=O)S/C(=C/c2cccc(F)c2)C1=O)N1CCN(c2ccccc2)CC1` to `O=[N+]([O-])c1cccc(CN2CCN(c3ccc(F)cc3)CC2)c1`, the “% Inhibition @ 10 uM” value rises from -1.44% to -0.294%.

Compared with `COc1ccc(N(CC(=O)N2CCc3ccccc3C2)S(=O)(=O)c2ccccc2)cc1OC`, `COc1ccc(OC)c(N(CC(=O)NC2CC2)S(=O)(=O)c2ccc(C)cc2)c1` is higher in “% Inhibition @ 10 uM” value: -7.69% for the first, -2.19% for the second.

First: COc1ccc(Cl)cc1NC(=O)CC1NCCNC1=O (centres unmarked)
Second: COC(=O)c1cc(S(=O)(=O)NCC2CCN(Cc3ccc(Cl)cc3)CC2)c[nH]1
The “% Inhibition @ 10 uM” value of the first is lower: 0.843% for the first, 5.88% for the second.

Compared with `O=C(CCC(=O)Nc1cccc(C(F)(F)F)c1)Nc1cccc(C(F)(F)F)c1`, `O=C(Nc1cccc(N2C(=O)C3C4C=CC(C4)C3C2=O)c1)c1ccccc1` (centres unmarked) is higher in “% Inhibition @ 10 uM” value: -5.13% for the first, 0.812% for the second.

First: CCCCS(=O)C1CCCCC1OC(=O)c1ccccc1 (centres unmarked)
Second: O=C(NC1CCCCC1)[C@H](Cc1ccccc1)N1Cc2ccccc2C1=O
The “% Inhibition @ 10 uM” value of the first is lower: -3.48% for the first, 2.93% for the second.

First: CC1=C(C(=O)Nc2ccccc2)C(c2ccc(C)o2)n2c(s/c(=C/c3cn(C)nc3C)c2=O)=N1 (centres unmarked)
Second: COc1cccc(/C=C2\N=C(c3ccc(Br)cc3)OC2=O)c1OC
The “% Inhibition @ 10 uM” value of the first is higher: 5.24% for the first, 1.64% for the second.

Compared with `O=C(NCc1ccc2c(c1)OCO2)c1ccc2c(c1)C(=O)N(Cc1cccnc1)C2=O`, `O=C1CC(N2CCN(c3ccc4c(c3)OCO4)CC2)C(=O)N1c1ccc(Br)cc1` (centres unmarked) is higher in “% Inhibition @ 10 uM” value: -5.54% for the first, 2.87% for the second.

Compared with `CC12CCC3c4cc(Br)c(O)cc4CCC3C1CCC2O` (centres unmarked), `CCN(CC)C(=O)C1CCCN(C2CCC(c3ccccc3)CC2)C1` (centres unmarked) is higher in “% Inhibition @ 10 uM” value: -0.357% for the first, 1.42% for the second.

First: O=C(NC1CCCCC1)C12CC3CC(C1)CC(n1cncn1)(C3)C2
Second: CC1CCCC(NC(=O)CN(C)S(=O)(=O)c2cccc3cccnc23)C1C (centres unmarked)
The “% Inhibition @ 10 uM” value of the first is lower: -11.9% for the first, -4.21% for the second.

First: COc1ccccc1/C=C/C1=NN(c2cccc(F)c2)C(c2ccccc2OC)C1 (centres unmarked)
Second: Cc1ccc(C(=O)C2=C(O)C(=O)N(c3ccc(O)cc3)C2c2ccc(F)cc2)cc1 (centres unmarked)
The “% Inhibition @ 10 uM” value of the first is lower: -4.61% for the first, -2.94% for the second.

Going from `Cc1ccc(/C(O)=C/c2nc3nonc3nc2O)cc1C` to `CCOC(=O)C1=NNC2C(=O)N(Cc3ccccc3)C(=O)C12` (centres unmarked), the “% Inhibition @ 10 uM” value rises from 0.738% to 1.54%.

In the case of `CCOC(=O)N1CCN(C(=O)CSc2nnc(COc3ccccc3)o2)CC1`, the “% Inhibition @ 10 uM” value is reported as 4.05%.

For `CCOc1ccccc1NC(=O)CN(c1ccccc1F)S(C)(=O)=O`, the “% Inhibition @ 10 uM” value was 4.63% and 3.72%.
